Laboratory results: ChEMBL document CHEMBL1201862, “PubChem BioAssay data set” (2004)
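96-well plates; 48 h exposure; 5 concentrations. Endpoints by linear interpolation between flanking doses. Not reached: highest tested concentration assigned. Here, GI50 denotes the concentration required for 50% inhibition of growth.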 Active and inactive are the calls of the source. Cut-off read from the data, not from the text of the source: active = GI50 up to about 1.1 µM and inactive = higher.

The molecules below were run on NCI-H322M (assay: NCI tumour cell line growth inhibition, 48 h).

Compound	GI50
CC/C(CC(=O)CCC(=O)Nc1ccc(C)c(C)c1)=N\NC(=O)c1cc2ccccc2cc1O	inactive: 28.8 µM
CC1SCCc2nc3ccccc3n21 (stereo unspecified)	inactive: > 100 µM
CC(=O)O[C@H]1CC[C@@]2(C)C(=CC[C@@H]3C2CC[C@]2(C)Nc4[nH]ncc4CC32)C1 (stereo partly specified)	inactive: 45.7 µM
CC(=O)Nc1ccc(OC/C(N)=N/NC(=O)c2ccncc2)cc1	inactive: > 100 µM
Cc1c(/C=N/NC(=S)Nc2ccc([N+](=O)[O-])cc2)c(=O)n(-c2ccccc2)n1C	inactive: 12.8 µM
COc1ccccc1C(=O)N(Cc1ccccc1)c1ccc(Cl)c(C(=O)OC(C)C)c1	inactive: 32.9 µM
CC1=C(C(=O)Nc2ccccc2C)C(c2ccccc2C)C(C(=O)Nc2ccccc2C)=C(C)N1	inactive: 29.9 µM
C#CCOCn1cnc2ncnc(N)c21	inactive: > 100 µM
CCCCN(C)CC(C(C)=O)C(c1ccccc1)c1c(O)c2ccccc2oc1=O (stereo unspecified)	inactive: > 100 µM
O=S(OC12CC3CC(CC(C3)C1)C2)c1cc(Cl)cc(Cl)c1OCc1ccccc1 (stereo unspecified)	inactive: > 100 µM
N#Cc1c(Cl)c(C=O)c(=O)n2c1[nH]c1ccccc12	inactive: 30.6 µM
CC(=O)C(C(=O)c1ccc(C)cc1)[C@H]1OC(C)(C)O[C@H]1[C@H]1COC(C)(C)O1 (stereo partly specified)	inactive: 8.41 µM
O=C(Nc1ccn(C2CC(I)C(COC(c3ccccc3)(c3ccccc3)c3ccccc3)O2)c(=O)n1)c1ccccc1 (stereo unspecified)	inactive: 16.8 µM
COc1ccc2c3c1OC1c4[nH]c5ccccc5c4CC4(O)C(C2)N(C)CCC314 (stereo unspecified)	inactive: 27.1 µM
O=C1CCCc2c(O)ccc(O)c21	inactive: > 100 µM
O=P(O)(O)c1ccc(-c2ccc(I)cc2)cc1	inactive: > 100 µM
Cn1nc(-c2ccccc2)c(N=[N+]=[N-])cc1=O	inactive: > 100 µM
CN(C)CC1CN/C(=N\C(=O)Nc2ccccc2)O1 (stereo unspecified)	inactive: > 100 µM
C=C(CC(=O)Nc1ccc(C(=O)OC)o1)C(=O)OC	inactive: > 100 µM
COC(=O)C1=C(C(=O)OC)N(c2ccc(OC)cc2[N+](=O)[O-])C(c2ccc(C)cc2)=CC1c1ccc(OC)cc1OC (stereo unspecified)	inactive: 27.2 µM
CC(=O)/C(=C/NC(=S)Nc1ccc(Cl)c(Cl)c1)C(=O)Nc1ccccc1C	inactive: 39.2 µM
CCN(CC)CCn1ccc(=O)c2cc3c(=O)ccn(CCN(CC)CC)c3c(C)c21	inactive: 4.65 µM
CN(C)CCCN1c2ccccc2CCc2ccc([N+](=O)[O-])cc21	inactive: 20.2 µM

Compound	GI50
O=C(O)CCc1nc2cc3ccccc3cc2[nH]c1=O	inactive: > 100 µM
O=C1c2ccccc2-c2nnc3c(c21)Cc1ccccc1C3	inactive: > 10 µM
CS(=O)(=O)c1nc(-c2cc3c(c(S(C)(=O)=O)n2)CCC3)cc2c1CCCC2	inactive: > 100 µM
COc1ccc(O)c(C#N)c1C#N	inactive: > 100 µM
Oc1ccccc1/C=N/c1ccc(Oc2ccc(Cl)cc2)c(Cl)c1	inactive: 22 µM
C=C1C(=O)O[C@H]2C[C@@]3(COC(C)=O)C=COC=C(COC(=O)C(C)C)C3CC12 (stereo partly specified)	inactive: > 100 µM
O=C1CCCNn2c(nc3ncccc3c2=O)N1	inactive: > 100 µM
O=C(Cc1nc2ccccc2s1)C(=O)Nc1ccc(Cl)cc1Cl	inactive: > 100 µM
Cc1cccc2c3ccc4c(c3n(C)c12)C(=O)C=CC4=O	inactive: > 100 µM
COc1nc2c(nc(N)n2C2OCC(O)C(O)C2O)c(=O)n1C (stereo unspecified)	inactive: > 100 µM
COc1ccc(/C=C(/C(=O)c2ccc(Cl)cc2)N2C=CC=CC2=C(C#N)C#N)cc1OC	inactive: 17.2 µM
COc1ccc(CC2COc3cc(OC)cc(OC)c3C2=O)cc1 (stereo unspecified)	inactive: 28.2 µM
O=C1NC(N2CCOCC2)=N/C1=C\c1ccc(Cl)cc1	inactive: > 100 µM
Cn1c([C@H](C#N)c2ncccc2[N+](=O)[O-])nc2ccccc21	inactive: > 100 µM
COc1ccc2c(c1OC)OCC(CN(C)C)C2=O (stereo unspecified)	inactive: 94.6 µM
O=S(=O)(O)c1ccc(-c2nnc(-c3ccccn3)nc2-c2ccc(S(=O)(=O)O)o2)o1	inactive: > 100 µM
Nc1ncnc2c1ncn2CCOC(c1ccccc1)P(=O)(O)O (stereo unspecified)	inactive: > 100 µM
CCOC(=O)c1[nH]c(Br)c(-c2ccc(Br)cc2)c1Br	inactive: 4.45 µM
Cn1c(=S)[nH]c(N)c(Cc2ccccc2)c1=O	inactive: > 100 µM
CS(=O)(=O)N(N(CCCl)S(=O)(=O)c1ccccc1)S(C)(=O)=O	inactive: > 100 µM
COc1cc(/C=C\c2ccccc2)cc(OC)c1OC	inactive: 7.33 µM
Cc1ccc2c(c1)c(=O)c1c(NCCN(C)C)ccc3nnn2c31	inactive: 1.93 µM
Cc1occc1C(=S)Nc1ccc(Cl)c(/C=N/OC(C)(C)C)c1	inactive: 17.5 µM
